Measured values published in PubChem BioAssay AID1461 (National Center for Advancing Translational Sciences (NCATS), 2008).
Out of some 220,000 compounds screened, about 2,300 (1%) were called active. Inconclusive results, whose numbers are uncertain, are shown with a selection of clear calls. Calls come from the whole dose curve; as a rule, active = well fitted inhibition curve with a large enough effect; inconclusive = small, poorly fitted or top-dose-only effect, or effect the other way; inactive = no such curve, though single readings can be large or run the other way. Potencies beside an inconclusive call are fits to weak or partial responses and may not hold up.

target: Neuropeptide S receptor (Homo sapiens) (UniProt Q6W5P4); experiment: qHTS Assay for Antagonists of the Neuropeptide S Receptor: cAMP Signal Transduction; conditions: CHO-NPSR cells, cAMP TR-FRET, antagonist mode; activity change, negative = inhibition: at 38.3 µM (top of the series) unless noted; note: nearly all actives have a fitted effect of over 50% in size
% is set by controls: 0 for no effect and ±100 for the full control effect; potency is the fitted concentration of half-maximal effect; tags give direction and shape of the fitted curve.

UniProt Q6W5P4, sequence (Q6W5P4 whole entry, looked up): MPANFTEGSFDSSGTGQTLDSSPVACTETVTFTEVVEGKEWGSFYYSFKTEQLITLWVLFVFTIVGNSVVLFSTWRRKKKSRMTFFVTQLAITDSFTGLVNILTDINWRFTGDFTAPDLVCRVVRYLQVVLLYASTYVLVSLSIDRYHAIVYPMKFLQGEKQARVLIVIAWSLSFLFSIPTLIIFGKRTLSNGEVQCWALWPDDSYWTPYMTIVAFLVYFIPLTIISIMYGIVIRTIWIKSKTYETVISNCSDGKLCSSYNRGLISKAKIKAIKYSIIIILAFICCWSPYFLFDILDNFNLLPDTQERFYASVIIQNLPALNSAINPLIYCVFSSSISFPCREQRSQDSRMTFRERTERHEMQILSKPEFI

| SMILES | Potency | activity change, negative = inhibition |
| --- | --- | --- |
| CN1CCN(c2nc3c(c(=O)n(C)c(=O)n3C)n2CCSc2nc3ccccc3s2)CC1 | inconclusive: 10 µM [activator, single point] | – |
| COc1ccc(CN(C(=O)c2nsc(Cl)c2Cl)C(C(=O)NC2CCCCC2)c2ccc(OC)cc2)cc1 (stereo not given) | inconclusive: 12.6 µM [inhibitor, partial curve] | – |
| CN1C(=O)/C(=C/c2ccccc2OCc2ccccc2F)NC1=S | inconclusive: 12.6 µM [inhibitor, single point] | – |
| Cc1cc(NC(=O)CSc2nc3c(cc2C#N)CCCCC3)no1 | inconclusive: 25.1 µM [activator, single point] | – |
| Cc1cc[n+](C(C)C(=O)c2ccc(-c3ccccc3)cc2)cc1 (stereo not given) | inactive | – |
| CSc1nc2ccccc2n1C(=O)Oc1ccccc1 | inactive | – |
| CC(=O)OCCn1c(=O)c2cc3c(=O)n(CCOC(C)=O)c(=O)c3cc2c1=O | inactive | – |
| CCCCn1cnc2sc(-c3ccccc3)cc2c1=O | inconclusive: 12.6 µM [inhibitor, single point] | – |
| COc1cc(-c2cc(OC)c3c(C)oc(C)c3c(=O)c2)ccc1O | inconclusive: 20 µM [inhibitor, single point] | – |
| COc1ccccc1-c1nn2c(C3COc4ccccc4O3)nnc2s1 (stereo not given) | inconclusive: 12.6 µM [inhibitor, partial curve] | – |
| CCOc1ccccc1NC(=O)C(OC(=O)c1ccc(O)cc1)c1ccccc1 (stereo not given) | inconclusive: 25.1 µM [inhibitor, single point] | – |
| S=C(Nc1ccccc1)N1CCOCCOCCN(C(=S)Nc2ccccc2)CCOCCOCC1 | inconclusive: 12.6 µM [activator, partial curve] | – |
| Cc1ccc(/C(=C\CN2CCCC2)c2ccccn2)cc1 | inconclusive: 0.0501 µM [activator, full curve] | – |
| CCOC(=O)c1csc(-c2sccc2Br)n1 | inconclusive: 7.94 µM [activator, partial curve] | – |
| COc1ccc(C2c3sc(=O)[nH]c3SC3C4CCC(C4)C23)cc1OC (stereo not given) | active: 7.94 µM | – |
| Cc1ccc(-n2nnnc2SCC(=O)N2CC(=O)Nc3ccccc32)cc1 | inactive | – |
| c1ccc(-n2ncc3c(N4CCCC4)ncnc32)cc1 | inconclusive: 0.794 µM [inhibitor, full curve] | – |
| COC(=O)c1ccc(N=C2S/C(=C\c3cc(C)n(-c4cccnc4)c3C)C(=O)N2C)cc1 | inconclusive: 12.6 µM [inhibitor, single point] | – |
| Oc1ccc(/C=N/NC(=S)N2CCOCC2)cc1 | inconclusive: 1 µM [inhibitor, full curve, poor fit] | – |
| COc1ccc(/C=C2\C(=O)N(Cc3ccc(F)cc3)CC(=O)N2Cc2ccccc2)cc1 | inconclusive: 20 µM [inhibitor, single point] | – |
| Cc1cc2cc(CNC(=O)CC(C)C)ccc2n1C | inactive | – |
| O=C(NCc1cccnc1)/C(=C/c1ccc(-c2cccc(Cl)c2)o1)S(=O)(=O)c1ccccc1 | active: 5.01 µM | – |
| CCOC(=O)C(=NCCCN(C)C)NNc1ccc(Br)cc1 | inactive | – |
| COCCN=C1Sc2nc3ccc(C)cc3cc2CN1Cc1ccco1 | inconclusive: 25.1 µM [inhibitor, single point] | – |

| SMILES | Potency | activity change, negative = inhibition |
| --- | --- | --- |
| CCCCCc1nc(N)c(C#N)c(-c2ccco2)c1CCCC | inconclusive: 10 µM [inhibitor, single point] | – |
| CC(C)CCNC(=O)C(c1ccco1)N(Cc1cccs1)C(=O)Cn1nnc2ccccc21 (stereo not given) | inconclusive: 12.6 µM [inhibitor, partial curve] | – |
| COc1ccc(-c2nn(-c3ccccc3)cc2C2CC(c3cccs3)=NN2C(=O)CCC(=O)O)cc1 (stereo not given) | inactive | – |
| Cc1cc(N/N=C/c2ccc(Cl)cc2Cl)nc(NCc2ccccc2)n1 | inconclusive: 10 µM [inhibitor, single point] | – |
| C/C(=N\NC(=O)c1cc2ccccc2cc1O)c1ccc2c(c1)OCO2 | inactive | – |
| Cc1ccc(/C(N)=N/OC(=O)c2cccc(Cn3cc(C(F)(F)F)ccc3=O)c2)cc1 | inconclusive: 12.6 µM [activator, single point] | – |
| Cc1ccc(-n2nc3c(c2NC(=O)C(C)(C)C)CSC3)c(C)c1 | inconclusive: 15.8 µM [inhibitor, partial curve] | – |
| CC(C)(C)c1ccc(/C=C2/SC(N3CCCC3)=NC2=O)cc1 | inconclusive: 12.6 µM [activator, single point] | – |
| CC(C)OC(=O)CNc1n[nH]c(=S)[nH]c1=O | inconclusive: 7.94 µM [activator, partial curve] | – |
| O=C(Oc1cccnc1)c1cc(S(=O)(=O)N2CCCCC2)ccc1Cl | inconclusive: 15.8 µM [inhibitor, partial curve] | – |
| CN(C)c1ccc(NC(=O)c2cccc(N3C(=O)CCC3=O)c2)cc1 | inconclusive: 31.6 µM [inhibitor, partial curve, poor fit] | – |
| O=C(c1ccc(NC(=O)C2(c3ccccc3)CCCC2)cc1)N1CCOCC1 | inactive | – |
| CCC1(CC)Cc2ccccc2-c2nc3ccccc3c(=O)n21 | inconclusive: 10 µM [inhibitor, partial curve] | – |
| C/C(=N/NC(=O)c1sc(=S)n(C)c1C)c1ccccc1 | inconclusive: 25.1 µM [inhibitor, single point] | – |
| O=C(NC(Cc1c[nH]c2ccccc12)C(=O)Nc1ccc(F)c([N+](=O)[O-])c1)c1cccs1 (stereo not given) | inconclusive: 25.1 µM [inhibitor, single point] | – |
| Cc1ccc(C)c(NC(=O)c2nc(-c3ccccc3)n(-c3ccccc3)n2)c1 | inconclusive: 12.6 µM [inhibitor, single point] | – |
| CC1CCCCN1C(=O)c1ccccc1NC(=O)c1ccco1 (stereo not given) | inconclusive: 25.1 µM [inhibitor, single point] | – |
| COc1cc2c(cc1NC(=O)C(C)OC(=O)C1CC(=O)N(Cc3ccco3)C1)oc1ccccc12 (stereo not given) | inconclusive: 12.6 µM [inhibitor, partial curve] | – |
| CC(=O)Nc1ccc(C(=O)Nc2nc(-c3ccccn3)cs2)cc1 | inactive | – |
| CC1CN(S(=O)(=O)c2ccc(C(=O)Nc3nc(-c4cc5ccccc5o4)cs3)cc2)CC(C)O1 (stereo not given) | inconclusive: 10 µM [inhibitor, single point] | – |
| COc1ccc(CN2CCCC(C(=O)c3ccc(Cl)cc3)C2)cc1Cn1cccn1 (stereo not given) | inconclusive: 10 µM [activator, partial curve] | – |
| COc1ccc(OC)c(Nc2nc(-c3sc(C)nc3C)cs2)c1 | inconclusive: 7.94 µM [inhibitor, partial curve] | – |
| O=C(OC1CCOC1=O)c1cc(-c2ccc(Cl)cc2)nc2ccccc12 (stereo not given) | inconclusive: 12.6 µM [inhibitor, partial curve] | – |
| Cc1cc(NC(=O)CSc2nc3ccccc3c(=O)n2C(C)c2ccccc2)no1 (stereo not given) | inconclusive: 12.6 µM [inhibitor, single point] | – |

| SMILES | Potency | activity change, negative = inhibition |
| --- | --- | --- |
| COc1ccc(/C=C/C(=O)c2ccncc2)c2ccccc12 | inactive | – |
| CCOc1ccc(-c2n[nH]c(C)c2Oc2ccc(OC)cc2)c(O)c1 | inconclusive: 12.6 µM [inhibitor, partial curve] | – |
| COc1ccc(C(=O)Sc2ccc(Cl)cc2)cc1OC | inactive | – |
| O=C(c1ccc2nc(-c3ccco3)c(-c3ccco3)nc2c1)N1CCN(c2ccccc2)CC1 | inconclusive: 12.6 µM [inhibitor, partial curve, poor fit] | – |
| C/C(Cn1nnc([N+](=O)[O-])n1)=N\NC(=O)c1ccc(O)cc1 | inactive | – |
| Cc1ccc(NCCC(=O)c2ccc(Cl)cc2)cc1 | inactive | – |
| O=C(NCc1ccccc1)C1=C[C@@H](c2csc3ccccc23)C[C@@H](OCc2ccc(CO)cc2)O1 | inconclusive: 10 µM [activator, partial curve] | – |
| COc1ccc(OC)c(N=c2oc3cc(O)ccc3cc2C(N)=O)c1 | inconclusive: 12.6 µM [inhibitor, partial curve, poor fit] | – |
| COc1cc(/C=C(\C#N)c2nc3ccccc3[nH]2)cc(Br)c1OCc1ccc(F)cc1 | active: 5.01 µM | – |
| Cc1cccc(C(=O)NNC(=O)c2cccc(C)c2)c1 | inactive | – |
| O=C(NC(=S)Nc1cc(Cl)ccc1O)c1cccc(Br)c1 | inactive | – |
| NS(=O)(=O)c1ccc(CCn2c(=S)[nH]c3ccc(F)cc3c2=O)cc1 | inconclusive: 12.6 µM [inhibitor, single point] | – |
| Cc1ccc(C(=O)N/N=C\c2ccccn2)cn1 | inactive | – |
| Cc1cccc(COCC(Cc2ccccc2)N2CCN(C(=O)c3cc(Cl)cc(Cl)c3)CCC2=O)c1 (stereo not given) | inconclusive: 12.6 µM [inhibitor, single point] | – |
| CCOc1ccc(-c2nc(C#N)c(NC3CC3)o2)cc1 | inactive | – |
| COc1cc(=O)[nH]c(SCc2c(F)c(F)c(F)c(F)c2F)n1 | inactive | – |
| COCCn1c(SCC(=O)N2CCCc3ccccc32)nc2ccccc2c1=O | inconclusive: 31.6 µM [inhibitor, single point] | – |
| Cc1sc(NC(=O)c2ccc(F)cc2)c(CN2CCCCCC2)c1C | inactive | – |
| CO/N=C/NC(=O)c1c(OC)ccnc1Oc1cccc(C(F)(F)F)c1 | inactive | – |
| CC1=C(C(=O)OC(C)C)C(c2cccc(F)c2)N2C(=O)C(C)SC2=N1 (stereo not given) | – | inconclusive: -30.8% [inhibitor] [at 46.1 µM] |
| Cc1cccc(NC(=O)Nc2cccc(Oc3c(F)c(F)c(F)c(F)c3F)c2)c1 | inconclusive: 0.1 µM [inhibitor, full curve, poor fit] | – |
| Cc1ccc(NC(CC(=O)c2ccccc2)C(=O)O)cc1Cl (stereo not given) | inconclusive: 12.6 µM [activator, single point] | – |
